Results on 101 compounds are retold here after article PMC6919601, “Identification of Plasmodium dipeptidyl aminopeptidase allosteric inhibitors by high throughput screening” (PLoS ONE, 2019).

Values joined by “and” are separate entries in the source; they are usually repeats but may differ in a detail not shown here. Equal values may be shown once. In all, about 110,000 compounds went through this assay and about 230 (0.21%) showed an effect of 50% or more. The list shows a part of the results.
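Note: 30 min substrate incubation versus DMSO and 10 µM JCP410 controls.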

This experiment deals with DPAP1 (Plasmodium falciparum, UniProt Q8IIJ9). The experiment can be described thus: primary screen, percent inhibition; read by cleavage of a fluorogenic dipeptide substrate; higher = more effect of the substance. The arrangement: species or system P. falciparum D10 trophozoite lysates; single well.
Chain of DPAP1 (Q8IIJ9 whole entry, looked up): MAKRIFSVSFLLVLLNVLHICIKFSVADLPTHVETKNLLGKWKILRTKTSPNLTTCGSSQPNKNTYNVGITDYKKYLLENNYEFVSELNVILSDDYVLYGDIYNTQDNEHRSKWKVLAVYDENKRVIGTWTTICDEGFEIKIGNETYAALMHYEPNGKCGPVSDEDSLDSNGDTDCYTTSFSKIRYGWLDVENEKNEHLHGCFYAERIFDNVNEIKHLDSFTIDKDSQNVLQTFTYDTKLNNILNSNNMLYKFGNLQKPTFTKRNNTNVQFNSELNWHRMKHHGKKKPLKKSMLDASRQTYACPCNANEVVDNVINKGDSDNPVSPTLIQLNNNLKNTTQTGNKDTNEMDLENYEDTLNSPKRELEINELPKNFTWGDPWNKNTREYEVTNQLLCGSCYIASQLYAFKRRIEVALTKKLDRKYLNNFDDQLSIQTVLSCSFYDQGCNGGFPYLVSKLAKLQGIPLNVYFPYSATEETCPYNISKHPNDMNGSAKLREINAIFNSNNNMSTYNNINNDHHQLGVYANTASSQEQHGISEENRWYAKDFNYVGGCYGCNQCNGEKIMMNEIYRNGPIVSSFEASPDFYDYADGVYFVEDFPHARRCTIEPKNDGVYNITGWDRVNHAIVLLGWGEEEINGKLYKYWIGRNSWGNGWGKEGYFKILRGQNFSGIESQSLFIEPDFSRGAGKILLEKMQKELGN
In the case of `CS(=O)(=O)N(CC(=O)N1CCCCCC1)c1ccc(Cl)c(C(F)(F)F)c1`, the “% Inhibition @ 10 uM” value is listed as 1.82%. With `O=C(NC1CCC(NC(=O)C2CCCO2)CC1)C1CCCO1` (centres unmarked), the “% Inhibition @ 10 uM” value came out at 1.08%.

`O=C(C1CCC(CNS(=O)(=O)c2ccccc2)CC1)N1CCC2(CC1)OCCO2` (centres unmarked): the “% Inhibition @ 10 uM” value is -0.971%. `c1csc(-c2nnc(-c3ccccc3-n3cnnn3)o2)c1`: the “% Inhibition @ 10 uM” value is on record as -1.07%.

Turning to `O=C(c1cccc(S(=O)(=O)N2CCOCC2)c1)N1CCOCC1`, the “% Inhibition @ 10 uM” value was 17%. With `O=C(Nc1ccc(Cl)cc1)Nc1cccc(F)c1` the figure was -2.12%; with `Oc1ccccc1-c1nc(O)c2ccccc2n1`, -0.239% and 3.53%; with `NC(=O)c1ccc(-n2nc(C(F)(F)F)c3c2CCCC3)cc1`, 0.776%. `Cc1ccc(C)n1-c1ccc(C(=O)O)c(O)c1`: the “% Inhibition @ 10 uM” value is 2.73%. In the case of `COc1ccc(CCN(C)CC(=O)Nc2c(C)cc(C)cc2C)cc1OC` it was -3.55%; in that of `COc1ccc(-c2noc(N3CCCC(C(=O)NCCN4CCOCC4)C3)n2)cc1` (centres unmarked), -3.95%; in that of `COc1cc(C)ccc1OCCSc1nc(-c2cccs2)nc2cc(=O)[nH]n12`, -0.477%. With `COc1ccc(OC)c(-n2nnc(-c3nc(-c4cccs4)no3)c2N)c1` the figure was -2.72%; with `CCCn1c(=N)c(C(=O)OCC)cc2c(=O)n3cc(C)ccc3nc21`, 3.6%; with `O=C(O)/C=C\C(=O)Nc1cccc([N+](=O)[O-])c1`, -2.02%. On to `CN(C)c1ccc(/C=C/c2nc(O)c3ccccc3n2)cc1`, for which the “% Inhibition @ 10 uM” value was 3.05%. With `COc1cccc(CN2CCN(Cc3cccc(F)c3)CC2)c1OC` the figure was -1.65%; with `CCCCN(C)CCCNC(=O)C1CCN(S(=O)(=O)N2CCC3(CC2)OCCO3)CC1`, -0.0542%; with `CC(=O)N1N=C2C3CCN(CC3)C2C1c1cccc([N+](=O)[O-])c1` (centres unmarked), 3.15%. In the case of `CNc1ccc2c(O)cc(S(=O)(=O)O)cc2c1` it was -8.13%. In the case of `O=C(O)CCNS(=O)(=O)c1ccc2[nH]c(O)nc2c1` it was 0.0289%; in that of `COc1cc(NC(=O)CCC(=O)O)cc2c(CCN)c[nH]c12`, -3.58%.

As to `O=S(=O)(c1ccc(Cl)cc1)N1CCN(c2ccccc2)CC1`, the “% Inhibition @ 10 uM” value is -4.91%. In the case of `O=C(O)C#Cc1cccc2ccccc12` it was 1.42%. In the case of `CCCn1c2ccccc2c2cnn(CC(=O)NC(C)CCc3ccco3)c(=O)c21` (centres unmarked) it was 5.24%. In the case of `CCCn1c(=N)c(S(=O)(=O)c2ccc(C)cc2)cc2c(=O)n3ccccc3nc21` it was 3.99%. Consider `CCCCCCSc1nnc2c(n1)[nH]c1ccccc12`, for which the “% Inhibition @ 10 uM” value is -2.35%. In the case of `O=C(CSc1nc(O)c2cnn(-c3ccc(Cl)cc3)c2n1)NC1CCCCC1` it was 3.53%; in that of `O=C(c1ccco1)N1CCN(C(=O)C2CC(c3ccc(F)cc3)=NO2)CC1` (centres unmarked), -3.94%. As to `O=S(=O)(NCC1CCCO1)c1ccc(Cl)cc1` (centres unmarked), the “% Inhibition @ 10 uM” value is on record as -6.86%.

Regarding `O=C(O)c1ccccc1CCc1ccc(Cl)s1`, the “% Inhibition @ 10 uM” value amounted to 4.67%. With `CCOc1ccc(CCNS(=O)(=O)c2cccc3nsnc23)cc1OCC` the figure was -6.84%; with `Cc1ccc(CN2CCN(c3ccccc3Cl)CC2)o1`, -2.21%. `CC1CCc2c(C(=O)NCCCc3ccccc3)csc2C1` (centres unmarked): the “% Inhibition @ 10 uM” value was -1.44%. On to `COCCN1C(=O)c2[nH]nc(-c3ccccc3O)c2C1c1ccc(O)c(OC)c1` (centres unmarked), for which the “% Inhibition @ 10 uM” value is 0.366%. With `Cc1nn(-c2ccccc2)c(Cl)c1C1C(C#N)=C(N)Oc2[nH]nc(-c3ccccc3)c21` (centres unmarked), the “% Inhibition @ 10 uM” value was -1.84%.

On to `CC(C)CS(=O)(=O)C1=NN2C(=N)/C(=C\c3cccc4ccccc34)C(=O)N=C2S1`, for which the “% Inhibition @ 10 uM” value is recorded as -3.58%. As for `Cn1c(=O)c2cn(Cc3ccc(Cl)cc3)cc2n(C)c1=O`, the “% Inhibition @ 10 uM” value is on record as -3.96%. As for `Cc1cc2nc(C)n(Cc3ccccc3F)c2cc1C`, the “% Inhibition @ 10 uM” value worked out at 0.596%.

`CCOC(=O)N1CCN(CN2C(=O)/C(=N\c3ccc(C)cc3)c3ccccc32)CC1`: the “% Inhibition @ 10 uM” value is listed as 1.02%. With `COc1ccc(Nc2nc3nonc3nc2Nc2ccc(F)cc2)c(OC)c1` the figure was 3.95%. In the case of `FC(F)(F)c1cccc(N2CCN(Cc3ccc(Br)s3)CC2)c1` it was -5.57%; in that of `O=C(c1ccc2c(c1)C(=O)N(c1ccccn1)C2=O)N1CCc2ccccc2C1`, 1.62%. In the case of `O=C(SCc1ccccn1)c1ccccc1` it was -4.49%; in that of `CCOCCc1c(O)nc(SCC(=O)NCc2ccco2)nc1O`, -3.41%; in that of `Cc1ccc2oc(C(=O)Nc3sc4c(c3C#N)CCCC4)cc(=O)c2c1`, -3.24%. As to `CCNC(=S)N1CCN(CC/N=C/C2=C(O)CC(c3ccccc3)CC2=O)CC1` (centres unmarked), the “% Inhibition @ 10 uM” value was 4.01%. With `COc1cc(/C=C2/C(=N)N3C=CSC3=NC2=O)cc(OC)c1OCCOc1ccccc1Cl` the figure was -7.23%; with `Cc1nn(CC(=O)N2CCCC2)c(=O)c2nn(-c3ccccc3)c(C)c12`, -6.73%. In the case of `CCCSc1ncc(Cl)c(C(=O)Nc2sc3c(c2C(=O)NC)CCCC3)n1` it was -4.02%. With `N#CC1(C#N)[C@H](C(N)=O)[C@H]1c1ccccc1` the figure was -3.13%; with `O=C(COc1ccc2ccccc2c1Br)N1CCCCCC1`, -2.22%; with `O=C(Cn1c(=O)n(Cc2ccco2)c(=O)c2sc3ccccc3c21)NCCCc1ccccc1`, 1.02%. For `COc1cccc(CNCCc2ccc(Cl)cc2)c1OC`, the “% Inhibition @ 10 uM” value worked out at 0.214%. In the case of `COc1ccc2nc(NC(=O)CSc3nc4cc(C)ccc4[nH]3)sc2c1` it was 25.6%; in that of `COc1ccc(C2C(C(=O)c3ccc(F)cc3)=C(O)C(=O)N2CCCCCC(=O)O)c(OC)c1` (centres unmarked), -0.178%. Regarding `CCN1CCN(Cc2c(O)ccc3ccccc23)CC1`, the “% Inhibition @ 10 uM” value is listed as -1.41%. Take `O=C(c1cnn(-c2ccc(F)cc2)c1-n1cccc1)N1CCOCC1`: the “% Inhibition @ 10 uM” value is on record as -5%. In the case of `CCC(/N=c1/c(-c2ccccc2)c(O)c1=O)c1cccs1` (centres unmarked) it was -2.57%; in that of `COc1ccc(NC(=O)CN(c2ccc(OC)c(OC)c2)S(C)(=O)=O)cc1`, 0.324%.

Consider `COc1ccccc1C(=O)N(Cc1ccc(C)cc1)Cc1ccco1`, for which the “% Inhibition @ 10 uM” value is on record as 1.25%.

Turning to `CCS(=O)(=O)Nc1c(NC)c2ccccc2oc1=O`, the “% Inhibition @ 10 uM” value came to 0.454%. `Cc1cc(-c2ccc(S(=O)(=O)NCc3ccc(Cl)cc3)s2)on1`: the “% Inhibition @ 10 uM” value is on record as 3.74%. With `Cn1c(=O)c(Sc2ccc(Cl)cc2)c(O)c2ccccc21` the figure was 2.37%; with `CC(C)(CC(NC(=O)c1ccc(-c2ccccc2Cl)cc1)C(=O)NCC#N)c1ccccc1` (centres unmarked), -5.42%. In the case of `COc1ccc(C(=O)C2=C(O)C(=O)N(CCCN3CCOCC3)C2c2cccc(O)c2)cc1F` (centres unmarked) it was -3.72%. For `CC(=O)Nc1ccc(S(=O)(=O)N2CCN(c3cc(Cl)ccc3Cl)CC2)cc1`, the “% Inhibition @ 10 uM” value is listed as 3.35%. `O=C(NCc1ccccc1Cl)C1CCN(S(=O)(=O)c2ccccc2)CC1`: the “% Inhibition @ 10 uM” value is 2.17%. Regarding `CN1CCN(c2nc(-c3ccc(C(=O)NC(C(=O)NCC#N)C(C)(C)F)cc3)cs2)CC1` (centres unmarked), the “% Inhibition @ 10 uM” value is recorded as -1.41%. In the case of `CCc1c(C(=O)NCc2ccc(F)cc2)[nH]c(C)c1C(C)=O` it was -4.96%; in that of `Cc1noc(/C=C/N(C)C)c1S(=O)(=O)N1CCC(C(=O)NC2CCCc3ccccc32)CC1` (centres unmarked), -4.69%. As for `COc1ccc(NC(=O)c2ccccc2NC(=O)c2ccco2)cc1`, the “% Inhibition @ 10 uM” value came out at 0.528%. With `CC(=O)c1ccc(N2CCN(Cc3ccco3)CC2)cc1` the figure was -6.12%; with `O=C(Nc1cccnc1Cl)c1cc(C2CC2)on1`, -7.85%. With `Cc1cc(/C=C2/NC(=O)NC2=O)c(C)n1-c1ccc2ccccc2c1` the figure was -3.06%; with `COc1ccc(CCNC(=O)COCc2cc(-c3ccc4c(c3)OCO4)on2)cc1OC`, 2.37%; with `CC(C)C(=O)c1ccc(OCCOc2ccc(C#N)cc2)cc1`, 0.997%.

For `CCOCCCNc1oc(COc2ccc(F)cc2)nc1C#N`, the “% Inhibition @ 10 uM” value is reported as -0.958%. With `Cn1c(=O)c2c(ncn2Cc2cccc3ccccc23)n(C)c1=O` the figure was -1.47%; with `O=C(NCC1CCCO1)c1ccc2c(c1)sc1nc(-c3ccccc3)cn12` (centres unmarked), 12.7%; with `CN(C)c1ccc(C2CC(c3ccccc3)=NN2c2ccccc2)cc1` (centres unmarked), -7.12%. With `O=C(/C=C/c1ccccc1)Nc1nnc(CSCc2ccccc2F)s1` the figure was 1.58%; with `CCN(CC)CCNc1ncccn1`, -3.77%. In the case of `Cn1c(=O)c2c(nc(N3CCOCC3)n2CCN)n(C)c1=O` it was 2.01%; in that of `COc1ccc(C2=CC(c3cc(OC)c(OC)c(OC)c3)n3ncnc3N2)cc1` (centres unmarked), 3.19%.

As to `COC(=O)c1ccc(-c2ccc(/C=C3/C(=N)N4C(SC)=NSC4=NC3=O)o2)cc1`, the “% Inhibition @ 10 uM” value was -10.1%.

As for `CCn1cc(NC(=O)NCC2COc3ccccc3O2)c(=O)c2ccc(C)nc21` (centres unmarked), the “% Inhibition @ 10 uM” value is on record as -1.07%. With `Cc1cc(OCC(=O)N(C)Cc2ccccc2)cc(C)c1Cl` the figure was 2.45%; with `CC(=O)c1sc(Nc2ccc(C)c(Cl)c2)nc1C`, 0.5%; with `CC(O)CC(C)(C)N1CCOCC1` (centres unmarked), 0.937%.

Consider `COc1ccc(Br)cc1CN1CCCC(O)C1` (centres unmarked), for which the “% Inhibition @ 10 uM” value turned out to be 3%. In the case of `COc1ccc2c(c1)C(=O)N(CCc1ccccc1)C(=O)C2` it was 2.03%.

As for `COc1ccc(Cc2nnc(NC(=O)/C(=C/c3ccccc3)c3ccccc3)s2)cc1`, the “% Inhibition @ 10 uM” value was found to be 2.25%. With `O=S(=O)(c1cccc(C(F)(F)F)c1)N1CCN(c2ccccc2F)CC1` the figure was -12.8%; with `CC1=CC2=NC(=O)/C(=C\c3cccn3Cc3ccccc3)C(=N)N2O1`, 0.102%. In the case of `O=C(CSc1nnnn1-c1ccccc1F)NCc1ccc2c(c1)OCO2` it was -1.24%; in that of `CSc1nncn1/N=C/c1cc(Cl)ccc1F`, -2.6%. In the case of `CCOC(=O)N1CCC(N2CCN(c3ccccc3)CC2)CC1` it was -4.04%. As for `CN1CCN(C(=O)CCCN2C(=O)CSc3ncccc32)CC1`, the “% Inhibition @ 10 uM” value is reported as -4.15%. With `Cn1cccc1/C=C1\CC/C(=C\c2cccn2C)C1=O` the figure was -0.503%. In the case of `COc1ccccc1-c1nnc2sc(C3COc4ccccc4O3)nn12` (centres unmarked) it was 4.47%.
